According to the supplement of paper PMC8728848:
The other results are listed elsewhere or left out.

What was measured:
Assay in all cases: glycan array binding signal (z-score within array); higher = stronger binding
Conditions in all cases: glycan notation: IUPAC condensed, linker removed
[1] = molecular target: Neu5Ac(a2-8)Neu5Ac(a2-8)Neu5Ac(a2-8)Neu5Ac(a2-3)[GalNAc(b1-4)]Gal(b1-4)Glc
Outline: (§1)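 Glycan array data came from 3228 arrays in the Consortium for Functional Glycomics database, and only arrays with an available protein sequence were kept. Glycan names were put into IUPAC-condensed notation, and columns mapping to the same glycan were averaged. The binding signal is a within-array Z-score, averaged across arrays of one protein sequence run at different concentrations or buffers and across linkers. A negative Z-score can be read as non-binding.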

[2] = molecular target: Neu5Ac9Ac(a2-6)Gal(b1-4)GlcNAc
Outline: as §1

[3] = molecular target: Neu5Gc(a2-3)Gal(b1-3)GlcNAc
Outline: as §1

[4] = molecular target: Neu5Gc(a2-3)Gal(b1-3)[Fuc(a1-4)]GlcNAc
Outline: as §1

Neu5Gc(a2-3)Gal(b1-4)Glc = molecular target: Neu5Gc(a2-3)Gal(b1-4)Glc
Outline: as §1

[5] = molecular target: Neu5Gc(a2-3)Gal(b1-4)GlcNAc
Outline: as §1

[6] = molecular target: Neu5Gc(a2-3)Gal(b1-4)[Fuc(a1-4)]GlcNAc
Outline: as §1

[7] = molecular target: Neu5Gc(a2-6)Gal(b1-4)GlcNAc
Outline: as §1

Neu5Gc(a2-6)GalNAc = molecular target: Neu5Gc(a2-6)GalNAc
Outline: as §1

B1: Dectin-1 CTLD (Mus musculus), Q6QLQ4 (protein)
chain: MKYHSHIENLDEDGYTQLDFSTQDIHKRPRGSEKGSRAPSSPWRPIAVGLGILCFVVVVVAAVLGALAFWRHNSGRNPEEKDNFLSRNKENHKPTESSLDEKVAPSKASQTTGGFSQSCLPNWIMHGKSCYLFSFSGNSWYGSKRHCSQLGAHLLKIDNSKEFEFIESQTSSHRINAFWIGLSRNQSEGPWFWEDGSAFFPNSFQVRNTVPQESLLHNCVWIHGSEVYNQICNTSSYSICEKEL
glycan array binding signal (z-score) [1]: 0.417 | glycan array binding signal (z-score) [2]: -0.528 | glycan array binding signal (z-score) [3]: -0.157 | glycan array binding signal (z-score) [4]: -0.041 | glycan array binding signal (z-score) (Neu5Gc(a2-3)Gal(b1-4)Glc): 0.654 | glycan array binding signal (z-score) [5]: -0.231 | glycan array binding signal (z-score) [6]: 0.569 | glycan array binding signal (z-score) [7]: 0.289 | glycan array binding signal (z-score) (Neu5Gc(a2-6)GalNAc): -0.2
